In PubChem BioAssay AID624296 (National Center for Advancing Translational Sciences (NCATS), 2012):
In all, about 350,000 compounds went through this assay and about 9,900 (2.8%) were called active. This list was built around the results that the source calls inconclusive (neither active nor inactive); the mix of calls is not that of the screen. The call rests on the fitted dose curve; in most records, active means well fitted activation curve with a large enough effect; inconclusive means small, poorly fitted or top-dose-only effect; inactive means no such curve, though single readings can be large or run the other way. No potency is given beside an inconclusive call; the fits are too rough.

assay: A quantitative high throughput screen for small molecules that induce DNA re-replication in MCF 10a normal breast cells.; further: nearly all actives have a fitted effect of over 50% in size; on activity, positive = re-replication: % of control where 0% means no effect; conditions: MCF 10A DNA re-replication, Hoechst nuclear intensity, 48 h; activity, positive = re-replication: at 46.1 µM (top of the series)
Potency means the concentration at half of the fitted maximal effect; tags describe the fitted curve by direction and shape.

**Q.** For O=S(=O)(c1ccc(N2CCOCC2)c(Cl)c1)N1CCOCC1, which Potency is on record?
**A.** inconclusive [activator, single point]

**Q.** With COc1ccc(CCNC(=O)CSc2ccc(-c3ccco3)nn2)cc1OC as the compound, how does the Potency read?
**A.** inconclusive [activator, partial curve, poor fit]

**Q.** For CCOC(=O)c1nn(-c2cc(C(=O)OC)cc(C(=O)OC)c2)cc1O, which Potency is on record?
**A.** inconclusive [activator, partial curve, poor fit]

**Q.** Which Potency does the source give for C=CCC1CCCCC12NC(=O)N(c1ccccc1)N2 (stereo not drawn) here?
**A.** inconclusive [activator, partial curve, poor fit]

**Q.** For COc1ccc(N=Cc2sc(O)c3ccccc23)cc1, which Potency is on record?
**A.** inconclusive [activator, single point]

**Q.** With COC(=O)/C(=C(/F)Sc1cc(C)c(O)c(C)c1)C(F)(F)F as the compound, how does the Potency read?
**A.** active: 25.9 µM

**Q.** Which Potency does the source give for CN(C(=O)COC(=O)CNS(=O)(=O)/C=C/c1ccccc1)C1CCS(=O)(=O)C1 (stereo not drawn) here?
**A.** inconclusive [activator, single point]

**Q.** With CC(C)Cn1nc(NC(=O)C2CCCO2)c2cc3ccccc3nc21 (stereo not drawn) as the compound, how does the Potency read?
**A.** inactive

**Q.** Which Potency does the source give for CCOC(=O)C1CCN(C(=O)CSc2nc3ncccc3[nH]2)CC1 here?
**A.** inactive

**Q.** For Cn1nccc1C(=O)NC1CCCc2c1cnn2-c1ccc(C(C)(C)C)cc1 (stereo not drawn), which Potency is on record?
**A.** active: 18.4 µM

**Q.** For COc1ccc(S(=O)(=O)N2CCCC2)cc1NC(=O)c1ccccc1, which Potency is on record?
**A.** inconclusive [activator, single point]

**Q.** With CS(=O)(=O)c1ccc(C(=O)OCC(=O)NC(=O)C2CCCCC2)cc1[N+](=O)[O-] as the compound, how does the Potency read?
**A.** inconclusive [activator, full curve, poor fit]

**Q.** For COc1ccc(N2CCN(c3cnc4ccccc4n3)CC2)cc1, which Potency is on record?
**A.** inconclusive [activator, single point]

**Q.** With Cc1ccc2nc3c(cc2c1)c(NS(=O)(=O)c1ccccc1)nn3CC(C)C as the compound, how does the Potency read?
**A.** inactive

**Q.** For COc1ccc(-c2n[nH]c(C)c2-c2cnn(-c3ccccc3)c2)c(O)c1, which Potency is on record?
**A.** active: 20.6 µM

**Q.** Which Potency does the source give for COc1ccccc1C1CCN(c2ccc(CO)cc2[N+](=O)[O-])CC1 here?
**A.** inconclusive [activator, single point]

**Q.** For O=[N+]([O-])c1cc(S(=O)(=O)NC2=NCCCCC2)ccc1NCC1CCCCC1, which Potency is on record?
**A.** inactive

**Q.** For CC(=NNC(=S)N1CCN(c2ccccn2)CC1)c1nccs1, which Potency is on record?
**A.** inconclusive [activator, partial curve, poor fit]

**Q.** With CC(C)c1ccc(NC(=O)C2CCN(C(=O)[C@@H]3Cc4ccccc4CN3)CC2)cc1 as the compound, how does the Potency read?
**A.** inconclusive [activator, partial curve, poor fit]

**Q.** With COc1cccc(-c2noc(CCC(=O)N3CCN(c4cc(C)ccc4C)CC3)n2)c1 as the compound, how does the Potency read?
**A.** inactive

**Q.** Which Potency does the source give for COc1cccc(C(=O)N[C@@H](C)C(=O)N2CCC3(CC2)NCCc2[nH]cnc23)c1 here?
**A.** inactive

**Q.** For OC1(CN2CCOCC2)C2CN3CCN(C2)CC1(c1ccccc1)C3 (stereo not drawn), which Potency is on record?
**A.** inconclusive [activator, full curve, poor fit]

**Q.** With Cc1nc(-c2ccc(S(=O)(=O)Oc3ccc(Cl)cc3Cl)s2)cs1 as the compound, how does the Potency read?
**A.** inconclusive [activator, single point]

**Q.** With O=C1c2ccccc2C(=O)C1c1ccc2ccccc2n1 as the compound, how does the Potency read?
**A.** inconclusive [activator, partial curve, poor fit]

**Q.** Which Potency does the source give for O=C(c1ccncc1)N(Cc1cc2ccccc2[nH]c1=O)C1CCCCC1 here?
**A.** inconclusive [activator, single point]

**Q.** Which Potency does the source give for COc1cccc(NC(=O)[C@@H](NC(=O)N2CCn3c2nc2ccccc23)C(C)C)c1 here?
**A.** inconclusive [activator, single point]

**Q.** Which Potency does the source give for C=C(C(=O)c1ccccc1)C(C)C(=C)C(=O)c1ccccc1 here?
**A.** active: 2.91 µM

**Q.** For CC(=O)CSc1ccc(-c2nc3cc(C)c(C)cc3[nH]2)cn1, which activity, positive = re-replication is on record?
**A.** inactive: -0.611% [at 9.22 µM]

**Q.** For N#CC1=C(N)Oc2cc(N)ccc2C1C1CC=CCC1 (stereo not drawn), which Potency is on record?
**A.** active: 6.51 µM

**Q.** Which Potency does the source give for CC(=O)Sc1nc(-c2ccccc2)[nH]c1S(=O)(=O)c1ccc(C)cc1 here?
**A.** inconclusive [activator, single point]

**Q.** Which Potency does the source give for COc1ccc(CN2CCN(Cc3ccc4ccccc4c3)CC2)cc1OC here?
**A.** inconclusive [activator, single point]

**Q.** Which Potency does the source give for CCCCNc1nc2ccccc2n1CC(=O)Nc1c(C)cccc1CC here?
**A.** inconclusive [activator, single point]

**Q.** Which Potency does the source give for CC(=O)Nc1cc[n+](CC(=O)c2ccc(Cl)cc2)cc1 here?
**A.** inactive

**Q.** Which Potency does the source give for COc1cc(OC)nc(Oc2ccccc2C=O)n1 here?
**A.** active: 16.4 µM

**Q.** For C=CCNC(=O)/C(C#N)=C/c1cc(Br)ccc1OC, which Potency is on record?
**A.** inconclusive [activator, single point]

**Q.** For O=C1CN(C(=O)/C=C/c2cccc(Cl)c2)c2ccccc2N1, which Potency is on record?
**A.** inconclusive [activator, single point]

**Q.** With Cn1ncc(Br)c1C(=O)NC1C2CC3CC(C2)CC1C3 (stereo not drawn) as the compound, how does the Potency read?
**A.** inconclusive [activator, full curve]

**Q.** With Cc1ccc(C(=O)c2oc3ccc(Cl)cc3c2NC(=O)CN2CCN(C)CC2)cc1 as the compound, how does the Potency read?
**A.** inconclusive [activator, single point]

**Q.** For C[C@H]1[C@H](C)CC[C@]2(C(=O)O)CC[C@]3(C)C(=CC[C@@H]4[C@@]5(C)C[C@@H](O)[C@H](O)C(C)(C)[C@@H]5CC[C@]43C)[C@H]12, which Potency is on record?
**A.** inconclusive [activator, partial curve, poor fit]

**Q.** With COc1cccc(CN(C)C(=O)C(CCSC)NS(=O)(=O)c2ccc3c(c2)OCCO3)c1OC (stereo not drawn) as the compound, how does the Potency read?
**A.** inconclusive [activator, single point]

**Q.** With COc1ccc(C(N)=O)cc1NC(=O)c1cccc(F)c1 as the compound, how does the Potency read?
**A.** inconclusive [activator, partial curve, poor fit]

**Q.** Which Potency does the source give for Cc1cc(C(=O)c2ccc(Cl)cc2)c(NC(=O)CCl)s1 here?
**A.** active: 20.6 µM

**Q.** For O=C1OC(N2C(=O)CC[C@H]2C(=O)Nc2cccc(F)c2)c2ccccc21 (stereo partly drawn), which Potency is on record?
**A.** inactive
